# Test results published in the supplement of paper PMC4604168 (melanoma cell lines).
# Some of the results follow. Most values come without repeats; read them as rough.
# System: COLO792
# Experiment: cell count relative to DMSO control; melanoma cells; higher = more viable cells
# Conditions: library dose: standard library concentration; 72 h
# 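Further: cells treated in 1,536-well plates, then fixed and DAPI-stained, with nuclei counted from automated high-throughput microscope images.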
row,SMILES,cell count
1,"Cn1cnc2c(F)c(Nc3ccc(Br)cc3Cl)c(C(=O)NOCCO)cc21 [selumetinib] + COc1ccc(COc2ccc(Cc3cnc(N)nc3N)cc2OC)cc1 [GW2580] (first compound 0.075 µM, partner dose 5 µM)",108%
2,"C[C@]1(O)C[C@@H](c2nc(-c3ccc4ccc(-c5ccccc5)nc4c3)c3c(N)nccn32)C1 + Cn1c(=O)n(-c2ccc(C(C)(C)C#N)cc2)c2c3cc(-c4cnc5ccccc5c4)ccc3ncc21 [NVP-BEZ235] (first compound 2 µM, partner dose 0.02 µM)",37.1%
3,"Cn1cnc2c(F)c(Nc3ccc(Br)cc3Cl)c(C(=O)NOCCO)cc21 [selumetinib] + O=C(O)c1ccc(-c2c[nH]c3ncc(-c4ccccc4)cc23)cc1C1CCCC1 [GSK650394] (first compound 0.075 µM, partner dose 0.8 µM)",72.7%
4,"COc1cc([C@@H]2c3cc4c(cc3[C@@H](O[C@@H]3O[C@@H]5CO[C@@H](C)O[C@H]5[C@H](O)[C@H]3O)[C@H]3COC(=O)[C@H]23)OCO4)cc(OC)c1O [etoposide] + COc1ccc2c(c1)CCC1C2CCC2(C)C(NCCCCCCN3C(=O)C=CC3=O)CCC12 [U73122] (first compound 0.1 µM, partner dose 2 µM)",107%
5,"COc1cc([C@@H]2c3cc4c(cc3[C@@H](O[C@@H]3O[C@@H]5CO[C@@H](C)O[C@H]5[C@H](O)[C@H]3O)[C@H]3COC(=O)[C@H]23)OCO4)cc(OC)c1O [etoposide] + COc1ccc(-c2ccc3c(N4CCOCC4)nc(N4C[C@@H](C)O[C@@H](C)C4)nc3n2)cc1CO [KU0063794] (first compound 0.1 µM, partner dose 0.1 µM)",91.3%
6,"COc1cc([C@@H]2c3cc4c(cc3[C@@H](O[C@@H]3O[C@@H]5CO[C@@H](C)O[C@H]5[C@H](O)[C@H]3O)[C@H]3COC(=O)[C@H]23)OCO4)cc(OC)c1O [etoposide] + Cc1cc(N2CCOCC2)cc2[nH]c(-c3c(NC[C@@H](O)c4cccc(Cl)c4)cc[nH]c3=O)nc12 [BMS536924] (first compound 0.1 µM, partner dose 1 µM)",66%
7,"Cn1cnc2c(F)c(Nc3ccc(Br)cc3Cl)c(C(=O)NOCCO)cc21 [selumetinib] + CN1CCN(c2ccc3nc(-c4c(N)c5c(F)cccc5[nH]c4=O)[nH]c3c2)CC1 [Dovitinib] (first compound 0.075 µM, partner dose 0.5 µM)",34.4%
8,"C[C@]1(O)C[C@@H](c2nc(-c3ccc4ccc(-c5ccccc5)nc4c3)c3c(N)nccn32)C1 + O=S(=O)(c1ccccc1)N(CC(F)(F)F)c1ccc(C(O)(C(F)(F)F)C(F)(F)F)cc1 [T0901317] (first compound 2 µM, partner dose 7 µM)",92.3%

# System: COLO800
# Experiment: as above
# Conditions: library dose: standard library concentration; 72 h
row,SMILES,cell count
1,"COc1cc([C@@H]2c3cc4c(cc3[C@@H](O[C@@H]3O[C@@H]5CO[C@@H](C)O[C@H]5[C@H](O)[C@H]3O)[C@H]3COC(=O)[C@H]23)OCO4)cc(OC)c1O [etoposide] + NC(=O)Nc1cc(-c2cccc(F)c2)sc1C(=O)N[C@H]1CCCNC1 [AZD7762] (first compound 0.1 µM, partner dose 0.1 µM)",64.3%
2,"CCN(CC)CCNC(=O)c1c(C)[nH]c(/C=C2\C(=O)Nc3ccc(F)cc32)c1C [sunitinib] + Nc1ccn([C@@H]2O[C@H](CO)[C@@H](O)C2(F)F)c(=O)n1 [gemcitabine] (first compound 2 µM, partner dose 0.002 µM)",87.3%
3,"C[C@]1(O)C[C@@H](c2nc(-c3ccc4ccc(-c5ccccc5)nc4c3)c3c(N)nccn32)C1 + O=C(O)c1ccc2c(c1)nc(Nc1cccc(Cl)c1)c1ccncc12 [CX4945] (first compound 2 µM, partner dose 2 µM)",50.5%
4,"COc1cc([C@@H]2c3cc4c(cc3[C@@H](O[C@@H]3O[C@@H]5CO[C@@H](C)O[C@H]5[C@H](O)[C@H]3O)[C@H]3COC(=O)[C@H]23)OCO4)cc(OC)c1O [etoposide] + CS(=O)(=O)c1ccc(C(=O)Nc2ccc(Cl)c(-c3ccccn3)c2)c(Cl)c1 [vismodegib] (first compound 0.1 µM, partner dose 5 µM)",58.9%
5,"Cn1cnc2c(F)c(Nc3ccc(Br)cc3Cl)c(C(=O)NOCCO)cc21 [selumetinib] + COC(=O)c1sccc1S(=O)(=O)Nc1ccc(Nc2ccccc2)cc1OC [GSK0660] (first compound 0.075 µM, partner dose 5 µM)",65.6%
6,"CCN(CC)CCNC(=O)c1c(C)[nH]c(/C=C2\C(=O)Nc3ccc(F)cc32)c1C [sunitinib] + COc1cc(Nc2ncc(F)c(Nc3ccc4c(n3)NC(=O)C(C)(C)O4)n2)cc(OC)c1OC [Tamatinib] (first compound 2 µM, partner dose 2 µM)",44%
7,"Cn1cnc2c(F)c(Nc3ccc(Br)cc3Cl)c(C(=O)NOCCO)cc21 [selumetinib] + CC(C)(C)c1cnc(CSc2cnc(NC(=O)C3CCNCC3)s2)o1 [SNS-032] (first compound 0.075 µM, partner dose 0.05 µM)",40.3%
8,"C[C@]1(O)C[C@@H](c2nc(-c3ccc4ccc(-c5ccccc5)nc4c3)c3c(N)nccn32)C1 + CCN(CC)CCNC(=O)c1c(C)[nH]c(/C=C2\C(=O)Nc3ccc(F)cc32)c1C [sunitinib] (first compound 2 µM, partner dose 2 µM)",53.1%
9,"COc1cc([C@@H]2c3cc4c(cc3[C@@H](O[C@@H]3O[C@@H]5CO[C@@H](C)O[C@H]5[C@H](O)[C@H]3O)[C@H]3COC(=O)[C@H]23)OCO4)cc(OC)c1O [etoposide] + O=C(Nc1cccc(Cl)c1)Nc1ncc(CCNc2ncnc3ccsc23)s1 [SNS314] (first compound 0.1 µM, partner dose 0.004 µM)",31.2%
10,"CCN(CC)CCNC(=O)c1c(C)[nH]c(/C=C2\C(=O)Nc3ccc(F)cc32)c1C [sunitinib] + CCCS(=O)(=O)Nc1ccc(F)c(C(=O)c2c[nH]c3ncc(Cl)cc23)c1F [PLX4720] (first compound 2 µM, partner dose 0.4 µM)",69.5%
11,"C[C@]1(O)C[C@@H](c2nc(-c3ccc4ccc(-c5ccccc5)nc4c3)c3c(N)nccn32)C1 + Nc1cccc2c1CN(C1CCC(=O)NC1=O)C2=O [lenalidomide] (first compound 2 µM, partner dose 5 µM)",41.9%
12,"Cn1cnc2c(F)c(Nc3ccc(Br)cc3Cl)c(C(=O)NOCCO)cc21 [selumetinib] + CCc1ccc(CCOc2ccc(CC3SC(=O)NC3=O)cc2)nc1 [pioglitazone] (first compound 0.075 µM, partner dose 10 µM)",124%
13,"CCN(CC)CCNC(=O)c1c(C)[nH]c(/C=C2\C(=O)Nc3ccc(F)cc32)c1C [sunitinib] + CCCCCCCCc1ccc(CCC(N)(CO)CO)cc1 [fingolimod] (first compound 2 µM, partner dose 10 µM)",69.3%
14,"CCN(CC)CCNC(=O)c1c(C)[nH]c(/C=C2\C(=O)Nc3ccc(F)cc32)c1C [sunitinib] + NCC(=O)Nc1ccc(-n2nc(C(F)(F)F)cc2-c2ccc3c(ccc4ccccc43)c2)cc1 [OSU03012] (first compound 2 µM, partner dose 5 µM)",41.3%
15,"Cn1cnc2c(F)c(Nc3ccc(Br)cc3Cl)c(C(=O)NOCCO)cc21 [selumetinib] + O=C(O)C(=O)Nc1sc2c(c1C(=O)O)CCNC2 [TCS401] (first compound 0.075 µM, partner dose 8.33333 µM)",110%
16,"COc1cc([C@@H]2c3cc4c(cc3[C@@H](O[C@@H]3O[C@@H]5CO[C@@H](C)O[C@H]5[C@H](O)[C@H]3O)[C@H]3COC(=O)[C@H]23)OCO4)cc(OC)c1O [etoposide] + C=C(c1ccc(C(=O)O)cc1)c1cc2c(cc1C)C(C)(C)CCC2(C)C [Bexarotene] (first compound 0.1 µM, partner dose 10 µM)",88.3%
17,"C[C@]1(O)C[C@@H](c2nc(-c3ccc4ccc(-c5ccccc5)nc4c3)c3c(N)nccn32)C1 + C=C(c1ccc(C(=O)O)cc1)c1cc2c(cc1C)C(C)(C)CCC2(C)C [Bexarotene] (first compound 2 µM, partner dose 10 µM)",62.6%
18,"C[C@]1(O)C[C@@H](c2nc(-c3ccc4ccc(-c5ccccc5)nc4c3)c3c(N)nccn32)C1 + NC1(c2ccc(-c3nc4ccn5c(=O)[nH]nc5c4cc3-c3ccccc3)cc2)CCC1 [MK2206] (first compound 2 µM, partner dose 2 µM)",57.7%
19,"COc1cc([C@@H]2c3cc4c(cc3[C@@H](O[C@@H]3O[C@@H]5CO[C@@H](C)O[C@H]5[C@H](O)[C@H]3O)[C@H]3COC(=O)[C@H]23)OCO4)cc(OC)c1O [etoposide] + Cn1c(Nc2ccc(C(F)(F)F)cc2)nc2cc(Oc3ccnc(-c4ncc(C(F)(F)F)[nH]4)c3)ccc21 [CHIR265] (first compound 0.1 µM, partner dose 0.4 µM)",56.8%
20,"Cn1cnc2c(F)c(Nc3ccc(Br)cc3Cl)c(C(=O)NOCCO)cc21 [selumetinib] + O=c1cc(-c2cccc3c2Sc2ccccc2S3)oc(N2CCOCC2)c1 [KU55933] (first compound 0.075 µM, partner dose 5 µM)",53.3%
